{"source": "the supplement of paper PMC8728848", "assay_in_all_cases": "glycan array binding signal (z-score within array); higher = stronger binding", "details_in_all_cases": "glycan notation: IUPAC condensed, linker removed", "key": {"[1]": {"molecular_target": "GlcNAc(b1-4)GlcNAc", "summary_of_the_method": "(§1)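 Arrays were curated from the Consortium for Functional Glycomics database, 3228 in total, and kept only where the protein sequence was available. Binding is expressed as a within-array Z-score. This score was averaged across arrays of the same protein sequence at different concentrations or buffers and across linkers, and negative values can be read as non-binding.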"}, "[2]": {"molecular_target": "GlcNAc(b1-4)GlcNAc(b1-4)GlcNAc", "summary_of_the_method": "as §1"}, "[3]": {"molecular_target": "GlcNAc(b1-4)GlcNAc(b1-4)GlcNAc(b1-4)GlcNAc(b1-4)GlcNAc", "summary_of_the_method": "as §1"}, "[4]": {"molecular_target": "GlcNAc(b1-4)GlcNAc(b1-4)GlcNAc(b1-4)GlcNAc(b1-4)GlcNAc(b1-4)GlcNAc", "summary_of_the_method": "as §1"}, "[5]": {"molecular_target": "GlcNAc(b1-4)[GlcNAc(b1-6)]GalNAc", "summary_of_the_method": "as §1"}, "[6]": {"molecular_target": "GlcNAc(b1-6)Gal(b1-4)GlcNAc", "summary_of_the_method": "as §1"}, "[7]": {"molecular_target": "GlcNAc(b1-6)GalNAc", "summary_of_the_method": "as §1"}, "[8]": {"molecular_target": "GlcNAc3Prop(b1-4)GlcNAc", "summary_of_the_method": "as §1"}, "[9]": {"molecular_target": "GlcNAc6S(b1-3)Gal(b1-4)GlcNAc", "summary_of_the_method": "as §1"}, "[10]": {"molecular_target": "Kdn(a2-3)Gal(b1-3)GalNAc", "summary_of_the_method": "as §1"}, "[11]": {"molecular_target": "Kdn(a2-3)Gal(b1-3)GlcNAc", "summary_of_the_method": "as §1"}, "[12]": {"molecular_target": "Kdn(a2-3)Gal(b1-4)Glc", "summary_of_the_method": "as §1"}, "[13]": {"molecular_target": "Kdn(a2-3)Gal(b1-4)GlcNAc", "summary_of_the_method": "as §1"}, "[14]": {"molecular_target": "Kdn(a2-3)Gal(b1-4)[Fuc(a1-3)]GlcNAc", "summary_of_the_method": "as §1"}, "[15]": {"molecular_target": "Kdn(a2-6)Gal(b1-4)GlcNAc", "summary_of_the_method": "as §1"}, "[16]": {"molecular_target": "Man(a1-2)Man(a1-2)Man(a1-3)Man", "summary_of_the_method": "as §1"}, "[17]": {"molecular_target": "Man(a1-2)Man(a1-2)Man(a1-6)[Man(a1-3)]Man", "summary_of_the_method": "as §1"}, "[18]": {"molecular_target": "Man(a1-2)Man(a1-3)Man", "summary_of_the_method": "as §1"}, "[19]": {"molecular_target": "Man(a1-2)Man(a1-3)[Man(a1-2)Man(a1-6)]Man", "summary_of_the_method": "as §1"}, "[20]": {"molecular_target": "Man(a1-2)Man(a1-3)[Man(a1-2)Man(a1-6)]Man(a1-6)[Man(a1-2)Man(a1-2)Man(a1-3)]Man", "summary_of_the_method": "as §1"}, "[21]": {"molecular_target": "Man(a1-2)Man(a1-3)[Man(a1-2)Man(a1-6)]Man(a1-6)[Man(a1-2)Man(a1-2)Man(a1-3)]Man(b1-4)GlcNAc(b1-4)GlcNAc", "summary_of_the_method": "as §1"}, "[22]": {"molecular_target": "Man(a1-2)Man(a1-3)[Man(a1-6)]Man(a1-6)[Man(a1-2)Man(a1-3)]Man(b1-4)GlcNAc(b1-4)GlcNAc", "summary_of_the_method": "as §1"}, "[23]": {"molecular_target": "Man(a1-2)Man(a1-6)[Man(a1-3)]Man(a1-6)[Man(a1-2)Man(a1-2)Man(a1-3)]Man", "summary_of_the_method": "as §1"}, "[24]": {"molecular_target": "Man(a1-2)Man(a1-6)[Man(a1-3)]Man(a1-6)[Man(a1-2)Man(a1-2)Man(a1-3)]Man(b1-4)GlcNAc(b1-4)GlcNAc", "summary_of_the_method": "as §1"}, "[25]": {"molecular_target": "Man(a1-3)[Man(a1-6)]Man", "summary_of_the_method": "as §1"}, "[26]": {"molecular_target": "Man(a1-3)[Man(a1-6)]Man(a1-6)[Man(a1-2)Man(a1-3)]Man(b1-4)GlcNAc(b1-4)GlcNAc", "summary_of_the_method": "as §1"}, "[27]": {"molecular_target": "Man(a1-3)[Man(a1-6)]Man(a1-6)[Man(a1-3)]Man", "summary_of_the_method": "as §1"}, "[28]": {"molecular_target": "Man(a1-3)[Man(a1-6)]Man(a1-6)[Man(a1-3)]Man(b1-4)GlcNAc(b1-4)GlcNAc", "summary_of_the_method": "as §1"}, "[29]": {"molecular_target": "Man(a1-3)[Man(a1-6)]Man(b1-4)GlcNAc(b1-4)GlcNAc", "summary_of_the_method": "as §1"}, "[30]": {"molecular_target": "Man(a1-6)Man", "summary_of_the_method": "as §1"}, "[31]": {"molecular_target": "Man(b1-4)GlcNAc", "summary_of_the_method": "as §1"}, "[32]": {"molecular_target": "Neu5Ac(a2-3)Gal", "summary_of_the_method": "as §1"}, "[33]": {"molecular_target": "Neu5Ac(a2-3)Gal(b1-3)GalNAc", "summary_of_the_method": "as §1"}, "[34]": {"molecular_target": "Neu5Ac(a2-3)Gal(b1-3)GalNAc(b1-3)Gal(a1-4)Gal(b1-4)Glc", "summary_of_the_method": "as §1"}, "[35]": {"molecular_target": "Neu5Ac(a2-3)Gal(b1-3)GalNAc(b1-4)[Neu5Ac(a2-3)]Gal(b1-4)Glc", "summary_of_the_method": "as §1"}, "[36]": {"molecular_target": "Neu5Ac(a2-3)Gal(b1-3)GalNAc6S", "summary_of_the_method": "as §1"}, "[37]": {"molecular_target": "Neu5Ac(a2-3)Gal(b1-3)GlcNAc", "summary_of_the_method": "as §1"}, "[38]": {"molecular_target": "Neu5Ac(a2-3)Gal(b1-3)GlcNAc(b1-2)Man(a1-3)[Neu5Ac(a2-3)Gal(b1-3)GlcNAc(b1-2)Man(a1-6)]Man(b1-4)GlcNAc(b1-4)GlcNAc", "summary_of_the_method": "as §1"}}, "note": "The list shows a part of the results."}
{"binder": "Pp2-A2 (Arabidopsis thaliana), Q07098 (protein) MPSNGDLDRQIEQLMECKPLSEADVRTLCDQARAILVEEYNVQPVKCPVTVCGDIHGQFYDLIELFRIGGNAPDTNYLFMGDYVDRGYYSVETVSLLVALKVRYRDRLTILRGNHESRQITQVYGFYDECLRKYGNANVWKYFTDLFDYLPLTALIESQVFCLHGGLSPSLDTLDNIRSLDRIQEVPHEGPMCDLLWSDPDDRCGWGISPRGAGYTFGQDIAAQFNHNNGLSLISRAHQLVMEGFNWCQDKNVVTVFSAPNYCYRCGNMAAILEIGENMEQNFLQFDPAPRQVEPDTTRKTPDYFL", "values": [{"measurement": "glycan array binding signal (z-score)", "setting": "[1]", "value": -0.311}, {"measurement": "glycan array binding signal (z-score)", "setting": "[2]", "value": -0.415}, {"measurement": "glycan array binding signal (z-score)", "setting": "[3]", "value": 0.035}, {"measurement": "glycan array binding signal (z-score)", "setting": "[4]", "value": -0.534}, {"measurement": "glycan array binding signal (z-score)", "setting": "[5]", "value": -0.771}, {"measurement": "glycan array binding signal (z-score)", "setting": "[6]", "value": -1}, {"measurement": "glycan array binding signal (z-score)", "setting": "[7]", "value": -0.431}, {"measurement": "glycan array binding signal (z-score)", "setting": "[8]", "value": 0.106}, {"measurement": "glycan array binding signal (z-score)", "setting": "[9]", "value": -0.07}, {"measurement": "glycan array binding signal (z-score)", "setting": "[10]", "value": 0.64}, {"measurement": "glycan array binding signal (z-score)", "setting": "[11]", "value": 0.146}, {"measurement": "glycan array binding signal (z-score)", "setting": "[12]", "value": -0.322}, {"measurement": "glycan array binding signal (z-score)", "setting": "[13]", "value": -0.146}, {"measurement": "glycan array binding signal (z-score)", "setting": "[14]", "value": 0.287}, {"measurement": "glycan array binding signal (z-score)", "setting": "[15]", "value": -0.256}, {"measurement": "glycan array binding signal (z-score)", "setting": "[16]", "value": -0.204}, {"measurement": "glycan array binding signal (z-score)", "setting": "[17]", "value": -0.271}, {"measurement": "glycan array binding signal (z-score)", "setting": "[18]", "value": -0.205}, {"measurement": "glycan array binding signal (z-score)", "setting": "[19]", "value": 0.006}, {"measurement": "glycan array binding signal (z-score)", "setting": "[20]", "value": -0.378}, {"measurement": "glycan array binding signal (z-score)", "setting": "[21]", "value": -0.067}, {"measurement": "glycan array binding signal (z-score)", "setting": "[22]", "value": -0.219}, {"measurement": "glycan array binding signal (z-score)", "setting": "[23]", "value": -0.496}, {"measurement": "glycan array binding signal (z-score)", "setting": "[24]", "value": -0.088}, {"measurement": "glycan array binding signal (z-score)", "setting": "[25]", "value": -0.408}, {"measurement": "glycan array binding signal (z-score)", "setting": "[26]", "value": -0.359}, {"measurement": "glycan array binding signal (z-score)", "setting": "[27]", "value": 0.061}, {"measurement": "glycan array binding signal (z-score)", "setting": "[28]", "value": 0.217}, {"measurement": "glycan array binding signal (z-score)", "setting": "[29]", "value": -0.606}, {"measurement": "glycan array binding signal (z-score)", "setting": "[30]", "value": 0.211}, {"measurement": "glycan array binding signal (z-score)", "setting": "[31]", "value": 0.046}, {"measurement": "glycan array binding signal (z-score)", "setting": "[32]", "value": 0.058}, {"measurement": "glycan array binding signal (z-score)", "setting": "[33]", "value": -0.047}, {"measurement": "glycan array binding signal (z-score)", "setting": "[34]", "value": -0.52}, {"measurement": "glycan array binding signal (z-score)", "setting": "[35]", "value": -0.138}, {"measurement": "glycan array binding signal (z-score)", "setting": "[36]", "value": 0.985}, {"measurement": "glycan array binding signal (z-score)", "setting": "[37]", "value": -0.103}, {"measurement": "glycan array binding signal (z-score)", "setting": "[38]", "value": -0.494}]}
